Among all 310,000 compounds or so, about 14,000 (4.5%) showed an effect of 50% or more. Effects have a minus sign here. The list shows a part of the results.
These compounds were tested against human ether-à-go-go-related gene (hERG) potassium channel (human, UniProt Q12809) (assay: primary screen, population patch clamp on CHO cells stably expressing hERG).
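Further: peak tail current of the secondary pulse compared with the same well before compound.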

Chain of human ether-à-go-go-related gene (hERG) potassium channel (Q12809 whole entry, looked up): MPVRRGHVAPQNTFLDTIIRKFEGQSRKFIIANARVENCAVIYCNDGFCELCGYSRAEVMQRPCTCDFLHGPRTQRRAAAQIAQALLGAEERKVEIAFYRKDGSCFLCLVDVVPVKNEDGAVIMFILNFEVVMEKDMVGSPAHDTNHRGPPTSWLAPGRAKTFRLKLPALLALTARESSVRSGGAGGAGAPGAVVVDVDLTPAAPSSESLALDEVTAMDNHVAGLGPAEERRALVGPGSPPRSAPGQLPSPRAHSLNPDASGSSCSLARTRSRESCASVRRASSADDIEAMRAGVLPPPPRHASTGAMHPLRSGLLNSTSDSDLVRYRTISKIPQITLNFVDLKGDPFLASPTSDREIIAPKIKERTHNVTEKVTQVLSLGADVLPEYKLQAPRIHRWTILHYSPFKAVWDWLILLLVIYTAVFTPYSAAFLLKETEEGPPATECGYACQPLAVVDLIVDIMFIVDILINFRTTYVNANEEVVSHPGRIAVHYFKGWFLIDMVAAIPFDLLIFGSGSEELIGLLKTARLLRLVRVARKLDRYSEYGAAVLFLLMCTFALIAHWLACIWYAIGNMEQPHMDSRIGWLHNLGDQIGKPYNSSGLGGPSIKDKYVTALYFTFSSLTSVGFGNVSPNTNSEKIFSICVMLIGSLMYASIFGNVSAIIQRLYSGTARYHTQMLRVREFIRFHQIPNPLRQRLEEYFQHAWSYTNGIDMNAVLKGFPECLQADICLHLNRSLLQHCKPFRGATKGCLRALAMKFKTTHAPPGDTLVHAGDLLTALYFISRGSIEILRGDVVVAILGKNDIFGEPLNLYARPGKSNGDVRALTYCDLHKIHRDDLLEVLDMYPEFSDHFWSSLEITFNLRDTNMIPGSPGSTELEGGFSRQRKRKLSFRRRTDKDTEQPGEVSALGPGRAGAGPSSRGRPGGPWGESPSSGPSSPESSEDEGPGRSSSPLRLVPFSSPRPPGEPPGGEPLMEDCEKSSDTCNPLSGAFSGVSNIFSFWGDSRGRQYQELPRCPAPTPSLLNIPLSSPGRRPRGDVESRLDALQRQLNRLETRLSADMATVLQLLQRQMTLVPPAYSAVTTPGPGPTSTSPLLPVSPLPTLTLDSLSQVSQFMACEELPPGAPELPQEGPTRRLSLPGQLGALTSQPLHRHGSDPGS

SMILES	hERG current change (%, negative = inhibition) at 10uM [%]
CC(C)CCN1C(=O)c2ccc(C(=O)Nc3ccc(O)cc3C(=O)O)cc2C1=O	12.4
O=C(Cc1ccc(-n2c(=O)[nH]c3ccccc3c2=O)cc1)N1CCN(c2cccc(Cl)c2)CC1	-20.4
CN1CCN(C(=O)c2c(O)c3cccc4c3n(c2=O)CC4)CC1.Cl	19.5
CCCCn1c(N)c(N(CCOC)C(=O)c2nn(CC)c(=O)c3ccccc23)c(=O)[nH]c1=O	6.82
Cc1cc(N/N=C\c2ccc(Br)cc2)nc(-n2nc(C)cc2C)n1	19.1
COc1ccc(Cl)cc1N(C(C)C(=O)NC1CCCC1)S(C)(=O)=O (centres unmarked)	7
CC1(C)CC(=O)C=C(NCC(O)c2ccccc2)C1 (centres unmarked)	15.3
C=CCNC(=O)CN1CCN(C(c2ccccc2)c2ccccc2)CC1.O=C(O)C(=O)O	-5.05
Cc1ccc(-n2nc3cc(C)c(N)cc3n2)cc1	7.88
C=CCSC(=S)NC1CCS(=O)(=O)C1 (centres unmarked)	6.98
COc1ccc(S(=O)(=O)NCc2ccncc2)cc1NC(=O)c1ccccc1F	18.7
Cn1c(SCC(=O)Nc2ccc3c(c2)OCCO3)nnc1-c1ccncc1	-7.75
COc1ccc(-c2cc(C(=O)NCc3cccnc3)no2)cc1OC	-0.608
Cc1cc(C)c(C#N)c(OCc2ccc(Cl)nc2)n1	-8.51
CC(C)Cc1nc(C(N)=O)c2[nH]c(=O)n(-c3ccc(F)cc3)c2n1	6.62
Cc1nn(-c2ccccc2)nc1C(=O)Nc1ccc2[nH]ncc2c1	6.02
Cc1ccc(S(=O)(=O)NCC2COc3ccccc3O2)cc1 (centres unmarked)	-5.09
CCC1(c2ccc(F)cc2)NC(=O)N(CC(=O)Nc2ccc(-c3nc4ccc(C)cc4s3)cc2)C1=O (centres unmarked)	2.11
CCN(CC)c1ccc(/C=C(/C#N)c2nc3ccccc3[nH]2)c(OC(C)C)c1	-2.56
COc1ccc(CCNC(=O)C2CCN(S(=O)(=O)N3CCC4(CC3)OCCO4)CC2)cc1OC	1.93
CC(=O)c1c(C)[nH]c(C(=O)COC(=O)CCSc2ccccc2)c1C	23
Cc1cccc(Nc2nc3ccccc3s2)c1C	-0.166

SMILES	hERG current change (%, negative = inhibition) at 10uM [%]
Cc1cc(NS(C)(=O)=O)c(=O)n(Cc2c(F)cccc2Cl)c1	8.86
C#CCCOC(=O)N1C2=NC(C(=O)OC)=C(C(=O)OC)[C@@H]3Nc4ccccc4[C@]23C[C@H]1C(=O)OC	1.33
COC(=O)c1ccc(NC(C(=O)OC)C(C)C)c([N+](=O)[O-])c1 (centres unmarked)	-6.89
CC(=O)C1=C(C)OC(N)=C(C#N)C1c1cccnc1 (centres unmarked)	-12.2
O=C(COC(=O)c1cc(=O)[nH]c2ccccc12)NC1CCCC1	-11.8
Cn1c(=O)oc2cc(S(=O)(=O)Nc3cccc4c3CCCC4)ccc21	-4.53
COc1ccc(S(=O)(=O)Nc2c(C)c(C)cc3c2ncn3C)cc1	10.8
Cc1ccc(C)c(CN2C(=O)CSc3ccc(C(=O)NCCN4CCOCC4)cc32)c1	14.6
O=S(=O)(NCCC1=CCCCC1)c1ccc(OC(F)(F)F)cc1	-25.3
CCC(C)Sc1nnc(NC(=O)C2CCN(C(=O)c3ccco3)CC2)s1 (centres unmarked)	-57.2
CCc1ccc(N2CC(C(=O)Nc3ccc(C)c(S(=O)(=O)N4CCOCC4)c3)CC2=O)cc1 (centres unmarked)	-34.6
O=C(N[C@@H](Cc1ccccc1)C(=O)Nc1ccc(F)cc1)C1CCNCC1	12.5
O=C(c1ccc2oc(CCc3ccccc3)nc2c1)N1CC[C@H](O)C1	14.7
COc1ccc(N(CC(=O)Nc2ccccc2OC)S(=O)(=O)c2ccccc2)cc1Cl	7.49
Cc1c(C)n(Cc2ccccc2)c2ccc(C(=O)NCCN3CCOCC3)cc12	-3.43
O=C(NC(CC(=O)N1CCN(c2ccccc2O)CC1)c1ccccc1)c1ccccc1Cl (centres unmarked)	-70.6
Cc1ccc2c(CC(=O)N3CCOCC3)coc2c1	8.58
Cc1cccc(CCN=c2c([N+](=O)[O-])nn(-c3ccccc3)n2O)c1	-15.5
O=C1SCCC1NC(=O)C(c1ccccc1)c1ccccc1 (centres unmarked)	3.15
Cc1ccccc1NS(=O)(=O)c1c(C(=O)N2CCCCCC2)c(C)n(C)c1C	-20.7
COc1cccc(NC(=O)CN(C)C(=O)CNC(=O)c2ccc3ccccc3c2)c1	-10.2
CCOC(=O)N1CCN(Cc2nc(-c3ccccc3)no2)CC1	2

— article PMC4336329 (PLoS ONE, 2015)
